The text below walks through data of ChEMBL document CHEMBL4888484, “Replenishing the malaria drug discovery pipeline: Screening and hit evaluation of the MMV Hit Generation Library 1 (HGL1) against asexual blood stage Plasmodium falciparum ,using a nano luciferase reporter read-out” (2022).

Screen size: about 150,000 compounds; about 540 (0.36%) showed an effect of 50% or more. The list shows a part of the results.

The test system of this assay is Plasmodium falciparum. The assay can be described thus: Primary screen in NF54 nanoGlo assay, in single point, at 2uM, 72h; a lower Z score goes with more inhibition. The following applies: timepoint 72 hour. The assay is classed as functional, Erythrocyte.
For the molecule `O=C1CCC(CC(=O)N2CCCC3CCCC32)CC1` (centres undefined), the “% Inhibition” value is -1% and the Z score was found to be 0.18.
As to `O=S(=O)(c1cn[nH]c1)N1C[C@@H]2CC[C@@H](C2)C1`, the “% Inhibition” value is listed as -7% and the Z score was 0.95.
Taken in the same sequence, the figures for `COc1ccc(-c2nn(-c3ccc(C(F)(F)F)cc3)c(N)c2NC(=O)NCc2ccccn2)cc1` were -4% and 0.58.
With `O=C(c1cccc(-n2ccnc2)c1)N(C[C@H]1CCCO1)C1CCCC1`, the “% Inhibition” value is reported as -10% and the Z score was determined as 0.98.
The corresponding values for `Cn1c(C(F)(F)F)nc2cncc(C(=O)N3C[C@H]4CCC[C@H]4C3)c21` are -5% and 0.62.
As to `CCNC(=O)N1CC[C@H](NC(=O)Nc2cccc(C)c2Cl)C1`, the “% Inhibition” value turned out to be 5% and the Z score is on record as -0.71.
Taken in the same sequence, the figures for `CNC(=O)[C@@H]1C[C@H](Oc2ccccc2)CN1C1CCN(C(=O)CCc2c[nH]c3ccccc23)CC1` were -7% and 0.87.
Taken in the same sequence, the figures for `COc1ccc(CNC(=O)c2ccc(CN3CCOCC3)cc2)cc1OC` were -1% and 0.12.
Taken in the same sequence, the figures for `CC(C)(C)OC(=O)NCCC[C@H](NCC#N)c1ccccc1` were -4% and 0.69.
As to `O=C(N1CCOCC1)N1CCC[C@H]1c1nc(-c2ccccc2)no1`, the “% Inhibition” value is reported as -12% and the Z score amounted to 1.37.
As for `Cn1cc([C@@H](O)CNC(C2CCCC2)C2CCCC2)cn1`, the “% Inhibition” value was found to be 16% and the Z score was -2.88.
On to `CCS(=O)(=O)CCNC(=O)c1ccnc(C(C)C)n1`, for which the “% Inhibition” value is recorded as -4% and the Z score is 0.73.
With `CCN(C(=O)c1cnc([C@@H]2CCCO2)s1)c1cccc(F)c1`, the “% Inhibition” value was -11% and the Z score came out at 1.08.
Taken in the same sequence, the figures for `CC(=O)Nc1ccc(C(=O)N2CCCCCC2)o1` were 0% and 0.04.
Consider `O=C(c1ccc(F)cc1Cl)N1C2CCC1CC(n1nccn1)C2` (centres undefined), for which the “% Inhibition” value was -5% and the Z score turned out to be 0.72.
For `Cc1[nH]nc(NC(=O)c2ccoc2)c1-c1cccc(Br)c1`, the “% Inhibition” value was -7% and the Z score worked out at 1.03.
Taken in the same sequence, the figures for `Cc1cc(=O)n(Cc2nc(-c3cccnn3)no2)c2ccccc12` were -8% and 1.37.
With `CCn1c(=O)n([C@@H]2CCN(CCC(C)C)C2)c2ncccc21`, the “% Inhibition” value is given as -7% and the Z score is 0.93.
As for `Cc1nc(CCCC(=O)N[C@@](C)(CO)C2CC2)cs1`, the “% Inhibition” value was -4% and the Z score was 0.51.
Taken in the same sequence, the figures for `CC(=O)c1ccc(S(=O)(=O)N2CCC[C@@H]2Cn2nccn2)cc1` were -11% and 2.04.
Consider `OCC[C@H]1CN(C/C=C/c2ccc(F)cc2)CCN1CC1CCCCC1`, for which the “% Inhibition” value is 13% and the Z score was -1.64.
`CN(Cc1cn2ccccc2n1)[C@H]1COC[C@@H]1O`: the “% Inhibition” value is -2% and the Z score is 0.45.
For `Cc1cccc(-c2ccc3nc(-c4ccc(F)cc4)c(CN4CCN(S(=O)(=O)c5cccc6cccnc56)CC4)n3c2)c1`, the “% Inhibition” value is -7% and the Z score is 0.79.
Take `c1ccc(CN2CC[C@@]3(C2)NCCc2[nH]cnc23)cc1`: the “% Inhibition” value was -27% and the Z score was found to be 2.38.
The corresponding values for `CCc1noc(C)c1CN[C@H](CO)C(C)C` are -14% and 1.77.
The corresponding values for `Cn1cnc(NC(=O)[C@@H]2CCc3cc(F)ccc32)n1` are 0% and 0.
With `Cc1nc(C)c(C(=O)[C@H](C#N)c2ccc(C(F)(F)F)cn2)s1`, the “% Inhibition” value was -8% and the Z score came out at 1.13.
On to `CN(C)c1nsc(-c2ccc(C(=O)NCc3nnc4n3CCC4)cc2)n1`, for which the “% Inhibition” value was -15% and the Z score stood at 1.96.
As for `CC(=O)Nc1ccc(S(=O)(=O)N2C[C@@H]3C[C@H](C2)c2ccc(-c4ccccc4CN4CCOCC4)c(=O)n2C3)cc1`, the “% Inhibition” value was 31% and the Z score is reported as -3.54.
The corresponding values for `CCn1ncc(C(=O)NC[C@H]2CCCC(C)(C)O2)n1` are -9% and 1.04.
Taken in the same sequence, the figures for `O=C(Cn1nnnc1-c1ccccc1F)Nc1ccc(N2CCOCC2)cc1` were 2% and -0.22.
On to `COCCn1ccnc1-c1nc(C(C)C)cs1`, for which the “% Inhibition” value is -6% and the Z score is recorded as 0.87.
As for `COc1ccccc1[C@@H]1C=C(C(=O)O)Nc2c(C(=O)Nc3ccccc3)cnn21`, the “% Inhibition” value is given as -11% and the Z score was 1.41.
Taken in the same sequence, the figures for `C[C@@H](CN1CCOCC1)N(C)S(=O)(=O)Cc1ccc(F)cc1C#N` were -7% and 0.92.
Consider `COc1ccc([C@H]2CCc3nc(C(=O)N4CCN(c5ccccc5F)CC4)cn3C2)c(OC)c1`, for which the “% Inhibition” value is -6% and the Z score stood at 0.94.
The corresponding values for `CCN(C(=O)c1ccc2nc[nH]c2n1)[C@@H](C)Cc1ccc(OC)cc1` are -7% and 1.11.
Taken in the same sequence, the figures for `CN(C)C(=O)CN1CC[C@H](NC(=O)c2cccc(C(F)(F)F)c2)[C@@H](O)C1` were -3% and 0.53.
Take `CC(Oc1cccc2ccccc12)C(=O)NC1CCCC(C(N)=O)C1` (centres undefined): the “% Inhibition” value is given as -17% and the Z score came out at 1.51.
The corresponding values for `COC(=O)c1nc(NCC2CCCOC2C(C)C)sc1C` (centres undefined) are 6% and -1.09.
The corresponding values for `CC1CCN(c2ccc(N3CCN(C(=O)c4ccco4)CC3)nn2)CC1` are -11% and 1.76.
For `OCc1ccccc1NCc1cnc2ccc(Br)cn12`, the “% Inhibition” value was -12% and the Z score came to 1.39.
`COc1ccc(-c2ccc3nc[nH]c3c2)c(C)c1`: the “% Inhibition” value is reported as -14% and the Z score worked out at 2.77.

One may read the % Inhibition as the relative decrease from the control value, in per cent.
